Data on five compounds can be found in PubChem BioAssay (NCI).

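Test compounds were applied to cells in 96-well plates for 48 hours at 5 doses.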 A number of entries come with more than one value. The list is limited to them. Rule as the data show it: active = GI50 below about 0.43 µM; inactive = the rest. There may be further records. For part of these data: Values that stand side by side are repeats across runs, samples, wells, individuals or studies.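 At the GI50, growth is halved.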 For part of these data: The tests behind the records often covered other concentration ranges, which the source does not state; some values may only mark the edge of a range.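 TGI is the concentration that stops growth completely.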 Brackets tell where a record comes from. A, B and so on number the origins entry by entry.

Some test systems named below: CCRF-CEM leukemia; HL-60(TB) leukemia; K-562 leukemia; A498 renal; ACHN renal; DLD-1 colon; DMS 273 small cell lung; HCC-2998 colon; HCT-15 colon; HOP-62 NSCLC; KM20L2 colon; MOLT-4 leukemia; OVCAR-5 ovarian; SK-MEL-28 melanoma; SK-MEL-5 melanoma; SNB-75 CNS; SR leukemia; M14 melanoma; IGROV1 ovarian; LOX IMVI melanoma; NCI-H226 lung; NCI-H522 lung; OVCAR-3 ovarian; SF-268 CNS; SNB-19 CNS; TK-10 renal.

What all share (test): NCI-60 cell line screen, 48 h

For `Nc1ncc(CN2CCCC2)c(-c2ccccc2O)n1`, the TGI in the test on CCRF-CEM leukemia is 65.9 µM and > 750 µM; with HL-60(TB) leukemia, 20.5 µM and > 750 µM; with K-562 leukemia, 31.2 µM and > 750 µM.
Regarding `COc1cc2c(cc1O)CCN[C@@]21CS[C@H]2c3c(OC(C)=O)c(C)c4c(c3C(COC1=O)N1C2C2NC(Cc3cc(C)c(OC)c(O)c32)[C@@H]1O)OCO4` (stereo partly drawn), the GI50 in the test on A498 renal is 2.4e-07 µg/mL and 0.0045 µg/mL; in the test on ACHN renal, 1.9e-07 µg/mL and 0.0045 µg/mL; in the test on HCC-2998 colon it was 1.7e-07 µg/mL and 0.0045 µg/mL; with HOP-62 NSCLC, 1.1e-07 µg/mL and 0.0045 µg/mL; with OVCAR-5 ovarian, 2.6e-07 µg/mL and 0.0045 µg/mL; in the test on SK-MEL-28 melanoma, 1.4e-07 µg/mL and 0.0045 µg/mL. Also, the GI50 in the test with SK-MEL-5 melanoma is 1.3e-07 µg/mL and 0.0045 µg/mL. The TGI with DLD-1 colon is 3.4e-05 µg/mL and 0.195 µg/mL; in the test on DMS 273 small cell lung it was 2.7e-07 µg/mL and 0.0045 µg/mL; with HCC-2998 colon, 4.7e-07 µg/mL and 0.0045 µg/mL; in the test with HCT-15 colon, 6.3e-05 µg/mL and 0.012 µg/mL; in the test with MOLT-4 leukemia it was 3.1e-07 µg/mL and 0.0045 µg/mL; in the test with SNB-75 CNS, 3.4e-07 µg/mL and 0.0045 µg/mL. Also, in the test with SR leukemia, the TGI is 0.00027 µg/mL and 0.0045 µg/mL. In addition, in the test with KM20L2 colon, the outcome was “active and inactive”.
Turning to `O=C(NOCCO)c1ccc2cncn2c1Nc1ccc(I)cc1F`, the TGI is 790 nM [sample A, mean of 2 tests] and 19.5 µM [sample B, mean of 2 tests] in the test on HCC-2998 colon; > 10 µM [sample A, mean of 2 tests] and 27.3 nM [sample B, mean of 2 tests] in the test on M14 melanoma.
On to `COc1cc(C2c3cc4c(cc3[C@@H](Nc3ccc(F)cc3)C3COC(=O)[C@H]23)OCO4)cc(OC)c1O` (stereo partly drawn), for which, in the test on SNB-75 CNS, the TGI was 963 nM and 13.5 µM.
As to `C=C1C(C)C2C(Cc3ccccc3)NC(=O)C23C(OC(C)=O)C=CC(C)(O)C(=O)C(C)C/C=C/C3C1O` (stereo not drawn), the TGI with HOP-62 NSCLC is 1.14 µM and 120 µM; in the test with IGROV1 ovarian, 28.2 µM and > 500 µM; in the test on LOX IMVI melanoma, 11 µM and 773 nM; in the test with M14 melanoma, 16.7 µM and > 500 µM; with SF-268 CNS, 48.4 µM and > 500 µM; in the test on SK-MEL-5 melanoma, 20.5 µM and > 500 µM. For the same compound, the TGI in the test with SNB-19 CNS is 13 µM and > 197 µM; in the test on SNB-75 CNS, 745 nM and 23.1 µM; in the test on TK-10 renal it was 40 µM and > 500 µM. Further, the GI50 in the test on NCI-H226 lung is 16.4 nM and > 500 µM; in the test on NCI-H522 lung it was 41.8 nM [1 test] and 806 nM [mean of 2 tests]; in the test with OVCAR-3 ovarian, 95 nM and > 500 µM.
